In the supplement of paper PMC10369915:
Some of the results follow. Rule as the data show it: active = 3.2 or more and inactive = the rest. Most of these values are background signal.

The binders below were run against SHP2 C-SH2 domain E139D (assay: enrichment score (SH2-bound / input frequency) (ratio); bacterial display of known human phosphotyrosine sites (pTyr-Var adds point mutants) read by sequencing; higher = stronger binding; tyrosines were phosphorylated by kinases first). Settings: peptide library: pTyr-Var.
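Also: displayed peptides selected on beads carrying the immobilized SH2 domain, with library peptides lacking any tyrosine serving as negative controls.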

Enrichment score, inactive:
RRIHSYRCHLW [VHL_Y112_G114C] 0.387, RRIHSYRRHLW [VHL_Y112_G114R] 0.173, VKPENDRRLDI [VHL_Y175_Y175D] 0.702, IVRSPYEDLED [VHL_Y185_L184P] 0.607, AALKLYHVSDS [VIL1_Y256] 0.883, RLGDLYKEEMR [VIM_Y150_E151K] 1.1, KNNSIYVVANI [VNN1_Y134] 1.79, QKLPSYILENN [VPS13B_Y2774] 1.19, ERRLIYASDPK [VPS13D_Y864_T865A] 0.884, AEFGLYAAMVR [VSX2_Y222_G223A_YF] 0.958, AEFGLYGAMVW [VSX2_Y222_R227W_YF] 0.772, AKLDIYKRKVE [VWA3B_Y918_N916D] 0.77, KIMVIYDGACQ [VWDE_Y1035_T1032M] 0.728, RNFVRYVQGLK [VWF_Y1400] 0.643, RNFVHYVQGLK [VWF_Y1400_R1399H] 0.982, KIDAKYKKKIK [WDR19_Y1230_E1235K] 0.585, KTSGNYLAVTG [WDR19_Y28] 0.681, KTSGNYLPVTG [WDR19_Y28_A30P] 0.937, LKLWDYRRGRC [WDR5B_Y239_S240R] 0.281

These binders were tested against SHP2 C-SH2 domain wild-type in the same assay as above. Settings: peptide library: pTyr-Var.

Enrichment score, inactive:
RRIHSYRCHLW [VHL_Y112_G114C] 0.489, RRIHSYRRHLW [VHL_Y112_G114R] 0.208, VKPENDRRLDI [VHL_Y175_Y175D] 0.521, IVRSPYEDLED [VHL_Y185_L184P] 0.437, AALKLYHVSDS [VIL1_Y256] 0.778, RLGDLYKEEMR [VIM_Y150_E151K] 0.651, KNNSIYVVANI [VNN1_Y134] 1.97, QKLPSYILENN [VPS13B_Y2774] 1.05, ERRLIYASDPK [VPS13D_Y864_T865A] 0.741, AEFGLYAAMVR [VSX2_Y222_G223A_YF] 1.16, AEFGLYGAMVW [VSX2_Y222_R227W_YF] 1.12, AKLDIYKRKVE [VWA3B_Y918_N916D] 0.836, KIMVIYDGACQ [VWDE_Y1035_T1032M] 1.18, RNFVRYVQGLK [VWF_Y1400] 0.594, RNFVHYVQGLK [VWF_Y1400_R1399H] 1.46, KIDAKYKKKIK [WDR19_Y1230_E1235K] 0.692, KTSGNYLAVTG [WDR19_Y28] 0.507, KTSGNYLPVTG [WDR19_Y28_A30P] 0.719, LKLWDYRRGRC [WDR5B_Y239_S240R] 0.199

What follows are binders tested against SHP2 N-SH2 domain L43F in the same assay as above. Settings: peptide library: pTyr-Var.

Enrichment score, inactive:
RRIHSYRCHLW [VHL_Y112_G114C] 0.425, RRIHSYRRHLW [VHL_Y112_G114R] 0.176, VKPENDRRLDI [VHL_Y175_Y175D] 0.762, IVRSPYEDLED [VHL_Y185_L184P] 0.535, AALKLYHVSDS [VIL1_Y256] 0.557, RLGDLYKEEMR [VIM_Y150_E151K] 1.12, KNNSIYVVANI [VNN1_Y134] 1.66, QKLPSYILENN [VPS13B_Y2774] 0.936, ERRLIYASDPK [VPS13D_Y864_T865A] 0.857, AEFGLYAAMVR [VSX2_Y222_G223A_YF] 0.796, AEFGLYGAMVW [VSX2_Y222_R227W_YF] 0.906, AKLDIYKRKVE [VWA3B_Y918_N916D] 0.809, KIMVIYDGACQ [VWDE_Y1035_T1032M] 1.04, RNFVRYVQGLK [VWF_Y1400] 0.62, RNFVHYVQGLK [VWF_Y1400_R1399H] 0.913, KIDAKYKKKIK [WDR19_Y1230_E1235K] 0.63, KTSGNYLAVTG [WDR19_Y28] 0.639, KTSGNYLPVTG [WDR19_Y28_A30P] 0.961, LKLWDYRRGRC [WDR5B_Y239_S240R] 0.31

The binders below were run against SHP2 N-SH2 domain T42A in the same assay as above. Settings: peptide library: pTyr-Var.

Enrichment score, inactive:
RRIHSYRCHLW [VHL_Y112_G114C] 0.375, RRIHSYRRHLW [VHL_Y112_G114R] 0.164, VKPENDRRLDI [VHL_Y175_Y175D] 0.697, IVRSPYEDLED [VHL_Y185_L184P] 0.437, AALKLYHVSDS [VIL1_Y256] 0.497, RLGDLYKEEMR [VIM_Y150_E151K] 0.752, KNNSIYVVANI [VNN1_Y134] 1.53, QKLPSYILENN [VPS13B_Y2774] 1.13, ERRLIYASDPK [VPS13D_Y864_T865A] 0.645, AEFGLYAAMVR [VSX2_Y222_G223A_YF] 0.757, AEFGLYGAMVW [VSX2_Y222_R227W_YF] 0.672, AKLDIYKRKVE [VWA3B_Y918_N916D] 0.646, KIMVIYDGACQ [VWDE_Y1035_T1032M] 0.909, RNFVRYVQGLK [VWF_Y1400] 0.506, RNFVHYVQGLK [VWF_Y1400_R1399H] 2.26, KIDAKYKKKIK [WDR19_Y1230_E1235K] 0.837, KTSGNYLAVTG [WDR19_Y28] 0.767, KTSGNYLPVTG [WDR19_Y28_A30P] 0.86, LKLWDYRRGRC [WDR5B_Y239_S240R] 0.194

What follows are binders tested against SHP2 N-SH2 domain T52S in the same assay as above. Settings: peptide library: pTyr-Var.

Enrichment score, inactive:
RRIHSYRCHLW [VHL_Y112_G114C] 0.425, RRIHSYRRHLW [VHL_Y112_G114R] 0.21, VKPENDRRLDI [VHL_Y175_Y175D] 0.643, IVRSPYEDLED [VHL_Y185_L184P] 0.416, AALKLYHVSDS [VIL1_Y256] 0.728, RLGDLYKEEMR [VIM_Y150_E151K] 1.12, KNNSIYVVANI [VNN1_Y134] 1.55, QKLPSYILENN [VPS13B_Y2774] 0.964, ERRLIYASDPK [VPS13D_Y864_T865A] 0.895, AEFGLYAAMVR [VSX2_Y222_G223A_YF] 0.997, AEFGLYGAMVW [VSX2_Y222_R227W_YF] 0.658, AKLDIYKRKVE [VWA3B_Y918_N916D] 0.774, KIMVIYDGACQ [VWDE_Y1035_T1032M] 0.764, RNFVRYVQGLK [VWF_Y1400] 0.571, RNFVHYVQGLK [VWF_Y1400_R1399H] 1.28, KIDAKYKKKIK [WDR19_Y1230_E1235K] 0.663, KTSGNYLAVTG [WDR19_Y28] 0.562, KTSGNYLPVTG [WDR19_Y28_A30P] 0.608, LKLWDYRRGRC [WDR5B_Y239_S240R] 0.31

The binders below were run against SHP2 N-SH2 domain wild-type in the same assay as above. Settings: peptide library: pTyr-Var.

Enrichment score, inactive:
RRIHSYRCHLW [VHL_Y112_G114C] 0.293, RRIHSYRRHLW [VHL_Y112_G114R] 0.245, VKPENDRRLDI [VHL_Y175_Y175D] 0.892, IVRSPYEDLED [VHL_Y185_L184P] 0.748, AALKLYHVSDS [VIL1_Y256] 0.707, RLGDLYKEEMR [VIM_Y150_E151K] 1.17, KNNSIYVVANI [VNN1_Y134] 1.76, QKLPSYILENN [VPS13B_Y2774] 1.47, ERRLIYASDPK [VPS13D_Y864_T865A] 0.789, AEFGLYAAMVR [VSX2_Y222_G223A_YF] 1.21, AEFGLYGAMVW [VSX2_Y222_R227W_YF] 1.17, AKLDIYKRKVE [VWA3B_Y918_N916D] 0.983, KIMVIYDGACQ [VWDE_Y1035_T1032M] 1.18, RNFVRYVQGLK [VWF_Y1400] 0.472, RNFVHYVQGLK [VWF_Y1400_R1399H] 0.968, KIDAKYKKKIK [WDR19_Y1230_E1235K] 0.52, KTSGNYLAVTG [WDR19_Y28] 0.632, KTSGNYLPVTG [WDR19_Y28_A30P] 0.986, LKLWDYRRGRC [WDR5B_Y239_S240R] 0.311
